Data taken from the supplement of paper PMC10338343.
± gives the standard deviation. The entries are a selection whose mix differs from that of the whole data set.

Test system: MIWI (PIWIL1) piRISC loaded with L1MC piRNA (30 nt)
Experiment: pre-steady-state target cleavage rate (min^-1); MIWI and MILI are mouse PIWI proteins and EfPiwi is from a freshwater sponge; tags in brackets are library labels; higher = faster piRNA-guided slicing of the target
Conditions: guide: L1MC piRNA 5'p-UAACUAAAUACUAUGCAAGCUGUAGGUCCU; auxiliary factor: 500 nM mouse GTSF1
How it was run: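 Active affinity-purified piRISC carrying one synthetic guide (1 nM) was mixed with a transcribed, DNA-blocked target RNA library […] in HEPES–potassium acetate buffer at 33 °C for 0–8 or 0–960 min, with or without 500 nM GTSF1 partner protein. Uncleaved targets were then sequenced and normalised to depth and to weakly complementary targets. Three trials were pooled, and k3 was capped at 0.0001 min^-1. A burst-and-steady-state fit was applied to obtain the pre-steady-state cleavage rate.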
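Also: 1 nM active piRISC with 0.1 nM target library at 33 °C single turnover.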

Row | Sequence | pre-steady-state target cleavage rate
1 | UCCUGGAUGACGAUGCAUAGUAUUUAGUUA | 0.0161 ± 0.0045
2 | UCCUGGUACAGCUUGCAUAGUAUAUACAAA | 0.183 ± 0.043
3 | UCCUGCUACAGCUUCCAUAGUAUAUAGUUA | 0.112 ± 0.037
4 | UCCUGGAACAGCUUGGUAAGUAUUUAGUUA | 0.00797 ± 0.0031
5 | UCCUGGAUGUCGUGGCAUAGUAUUUAGUUA | 0.0123 ± 0.0034
6 | UCCUGGAACAGCUUGCAUUGUAUUUUCAAA | 0.155 ± 0.03
7 | UCCUCCUUCAGCUUGCAUAGUAUUUUCAAA | 0.294 ± 0.035
8 | UCCUCCUACAGCUACCAUAGUAUUUAGUUA | 0.412 ± 0.037
9 | UCCUGGAUCAGCUUGCAAUCUAUUUAGUAA | 0.00469 ± 0.0034
10 | UCGACCUACAGCUUGCAUAGUAUAAAGAAA | 0.417 ± 0.064
11 | UCCUGGAUGUCGAUGCAUAGUAUUUUAGUUA | 0.00428 ± 0.0031
12 | UCCUGCUACACCUUGCAUAGUAUUUACAAA | 0.245 ± 0.056
13 | UGGACCUACAGCUUGCAUAGUAAAAAGUAA | 0.142 ± 0.028
14 | UCCACCUACAGCUUGCAUAGUAAAUAGAAA | 0.167 ± 0.035
15 | UCCUGGAUGUCCUUGCUUACUAUUUAGUUA | 0.00457 ± 0.0044
16 | UCCUGCUUCAGCUUGCAUAGUAUUUUCAAA | 0.197 ± 0.035
17 | UCCACCUACAGCUUGCAUUGUAUUUACAAA | 0.112 ± 0.024
18 | UCCACCUACAGCUUGCAUAGUUUUAGUUA | 0.016 ± 0.008
19 | UCCUGGUACAGCUUGCAUAGAUUUUAGUAA | 0.0252 ± 0.015
20 | UCCUGGAACAGCUUGCUAUGUAUUUAGAAA | 0.00487 ± 0.0036
21 | UGGACCUACAGCUUGCAUAGUAUUAUCAAA | 0.212 ± 0.039
22 | UCCUGCUACAGCUUGGUUAGUAUUUUCAAA | 0.00524 ± 0.0039
23 | UCGACCUACACGAUGCAUAGUAUUUAGAAA | 0.192 ± 0.023
24 | AGGACCUACAGCAAGCAUAGUAUUUUCAAA | 0.437 ± 0.082
